Data on one molecule can be found in ChEMBL document CHEMBL1697723, “A predictive ligand-based Bayesian model for human drug-induced liver injury” (Drug Metab Dispos, 2010).

The test system of this data set is Hepatotoxicity. Kind of data set: Human drug-induced liver injury (DILI) modelling dataset from Ekins et al.

Some entries of the source have several records that differ or are many. The list is limited to them. There may be further records. The values listed for one entry are repeated measurements across runs, samples, wells, individuals or studies. Marks in square brackets tell the records apart. The letters are not those of the source and start again with each entry.

Take `Sc1ncnc2nc[nH]c12` [MERCAPTOPURINE ANHYDROUS]: the Hepatotoxicity entry was “DILI positive (training set) [compound entry A] and DILI positive (test set) [compound entry B]”.
